Assay [1] concerns Daudi-human NTCP transfectant. Briefly: ADCC activity (calcein-AM release, KHYG-1 FcγRIII effector cells). To be noted: 0.01, 0.1, 1, or 10 μg/ml; E:T 10:1; FIG. 14. The assay is classed as cell-based.
The next assay concerns the target T1, human NTCP (Homo sapiens, UniProt Q14973).
T1 construct: expressed in transfected cells; host or cells: HepG2 cells, lentiviral transduction
T1 sequence (Q14973 1-349): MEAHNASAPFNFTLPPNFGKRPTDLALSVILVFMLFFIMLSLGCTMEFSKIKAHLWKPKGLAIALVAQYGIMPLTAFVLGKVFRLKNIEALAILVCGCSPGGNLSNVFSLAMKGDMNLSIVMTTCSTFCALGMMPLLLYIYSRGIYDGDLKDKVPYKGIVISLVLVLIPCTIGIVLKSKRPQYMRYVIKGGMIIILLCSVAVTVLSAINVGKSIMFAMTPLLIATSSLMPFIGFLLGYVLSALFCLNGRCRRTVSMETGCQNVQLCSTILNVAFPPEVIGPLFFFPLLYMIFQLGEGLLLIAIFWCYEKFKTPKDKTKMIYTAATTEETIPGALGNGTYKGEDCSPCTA
Briefly: In-vitro bile acid transporter activity, HepG2-human NTCP cell line (Example 5). The assay is classed as cell-based. To be noted: 1000 nM; FIG. 13.

In assay [2] the target is T2, epitope region-containing peptide fragment (AFPPEVIGPLFFFPLLYMIFQLGEG-biotin) (Homo sapiens, UniProt Q14973).
T2 sequence (Q14973 273-297 limits assumed): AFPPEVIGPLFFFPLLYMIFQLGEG
In words: Surface plasmon resonance assay (BIAcore) of antigen binding affinity. The method, then:
In short, a carboxymethylated dextran biosensor chip (CM5, BIAcore Inc.) was activated by N-ethyl-N′-(3-dimethylaminopropyl)-carbodiimide hydrochloride (EDC) and N-hydroxysuccinimide (NHS) in accordance with the provider's instruction. An anti-mouse IgG antibody was diluted with 10 mM sodium acetate (pH5.2) up to 30 μg/ml. The dilution was injected at a flow rate of 5 to 10 μl/minute such that the reaction unit (RU) of the protein bound became 9,000 to 14,000 RU. In contrast, an anti-human IgG antibody was diluted with 10 mM sodium acetate (pH5.0) up to 25 μg/ml. The diluted antibody was injected at a flow rate of 5 to 10 μl/minute such that the reaction unit (RU) of the protein bound became 9,000 to 14,000 RU. After injection of each of the anti IgG antibodies, 1 M ethanolamine was injected in order to block unreactive groups. For kinetic measurement, N6HB426 antibody diluted with a running buffer (HBS-P: 10 mM HEPES pH7.5, 150 mM NaCl, 0.005% NP40) up to 10 μg/ml was immobilized onto CM5 chip via the anti-mouse IgG antibody, in advance. To the chip, a solution of an epitope region-containing peptide fragment ([…]-biotin: SEQ ID NO: 24) diluted with the running buffers at different concentrations was added at 25° C. at a flow rate of 10 μl/minute for 2 minutes. In contrast, the recombinant N6HB426 human chimeric IgG4 antibody was diluted with the running buffer up to 10 μg/ml and then was immobilized onto a sensor chip (CM5) via the anti-human IgG antibody in advance. […]
The refractive index of the solution varied in correlation to the mass of a chip surface changed when a peptide fragment molecule bound to N6HB426 antibody on the sensor chip, was monitored in real-time. Using simple one-to-one Langmuir binding model (BIAcore Evaluation software version 3.1) by fitting sensor grams of antigen-antibody association and dissociation at the same time, association rate (Ka) and dissociation rate (Kd) were calculated. A Kd/Ka ratio was calculated to obtain an equilibrium dissociation constant (KD).

For the next assay, the system named is HBV. Briefly: Virus neutralizing capacity in PXB cells, HBs and HBe antigen level (Example 7). The assay is classed as cell-based, hepatitis B virus (HBV). Particulars: 0.01 to 100 μg/mL, 9th day after HBV inoculation. The method, then:
To a 96-well (flat-bottom) plate, PXB cells (PhoenixBio, Hiroshima, Japan) were seeded at a density of 7×10^4 cells/well, and cultured in 65 μL of dHCGM medium (DMEM supplemented with 10% FBS, 20 mM HEPES, 44 mM NaHCO3, 100 U/mL penicillin, 100 μg/mL streptomycin, 15 μg/mL L-proline, 0.25 μg/mL insulin, 50 nM dexamethasone, 5 ng/mL EGF, 0.1 mM Asc-2P, 2% DMSO) under the condition of 37° C. and 5% CO2 (Day 0). Day 1 and 3 after initiation of culture, medium exchange was carried out. On Day 8, the medium was exchanged with a medium containing an antibody (60 μL). The medium that contained an antibody contained dHCGM medium (54 μL), 2% DMSO, PBS (−) and normal mouse IgG (FUJIFILM Wako Pure Chemical Corporation, Tokyo, Japan) serving as a negative control, or a recombinant N6HB426 human chimeric IgG4 antibody serving as a test group. The normal mouse IgG was added in a concentration of 100 μg/mL. The recombinant N6HB426 human chimeric IgG4 antibody was added in a concentration of 0.01 μg/mL, 0.1 μg/mL, 1 μg/mL, 10 μg/mL or 100 μg/mL. […] On the 9th day (day 17) after HBV inoculation, the culture supernatant was collected and measured for HBs antigen level and HBe antigen level.

Setting [3] is: 25° C., antibody immobilized on CM5 chip.

Results on 1 molecule are retold here after patent US12497461B2, “Human NTCP-binding antibody capable of inhibiting infection of hepatitis B virus (HBV) to human hepatocytes” (priority 2019, dated 2025).

For orientation: Kd means the equilibrium constant for the complex coming apart. A lower Kd goes with higher affinity.

B1: Recombinant N6HB426 human chimera IgG4 antibody: constant region of N6HB426-20 antibody replaced with human IgG4 constant region; heavy chain SEQ ID NO: 21, light chain SEQ ID NO: 24 (antibody)
heavy: QVQLQQSGAELVKPGASVKLSCKASDFTFTEYTIHWIKQMSGQGLEWIGWFYPGSGDIKYSEKFKDKATLTADKSSSTVYMELNRLTSEDSAVYFCARHMRDFRGFYYGRFYFDYWGQGTTLTVSSASTKGPSVFPLAPCSRSTSESTAALGCLVKDYFPEPVTVSWNSGALTSGVHTFPAVLQSSGLYSLSSVVTVPSSSLGTKTYTCNVDHKPSNTKVDKRV[letters of human IgG4 Fc not shown]
light: EIVLTQSPAIMSASPGEKVTITCRASSSVSSSYLHWYQQKSGVSPKLWIYSTSNLASGVPARFSGSGSGTSYSLTINSVEAEDAATYYCQQYSGYRWTFGGGTTLEIKRTVAAPSVFIFPPSDEQLKSGTASVVCLLNNFYPREAKVQWKVDNALQSGNSQESVTEQDSKDSTYSLSSTLTLSKADYEKHKVYACEVTHQGLSSPVTKSFNRGEC
modifications: Heavy chain of human chimera antibody; Light chain of human chimera antibody
For B1, the ADCC activity entry in assay [1] is reported as “not detected”. Moreover, in the assay with human NTCP, the “bile acid uptake ([3H]-taurocholic acid) suppression” value is “not suppressed”. The molecule also showed a Kd in assay [2] of approximately 0.1 nM. In addition, in assay [2] (setting [3]), the “Ka (1/Ms) association rate” value was 1339 M⁻¹ s⁻¹ and the “Kd (1/s) dissociation rate” value was 1.73e-07 s⁻¹. The HBs antigen level result in the assay with HBV (FIG. 15) is “decreases in a dose-dependent manner”. In the assay with HBV (FIG. 16), the HBe antigen level result is reported as “decreases in a dose-dependent manner”.
